# According to publication PMC4336329 (PLoS ONE, 2015):
# In all, about 310,000 compounds went through this assay and about 2,200 (0.71%) showed an effect of 50% or more. The effect is printed as a negative number. The list shows a part of the results.
# Target: human ether-à-go-go-related gene (hERG) potassium channel (human, UniProt Q12809)
# Experiment: primary screen, population patch clamp on CHO cells stably expressing hERG
# Chain of human ether-à-go-go-related gene (hERG) potassium channel (Q12809 whole entry, looked up): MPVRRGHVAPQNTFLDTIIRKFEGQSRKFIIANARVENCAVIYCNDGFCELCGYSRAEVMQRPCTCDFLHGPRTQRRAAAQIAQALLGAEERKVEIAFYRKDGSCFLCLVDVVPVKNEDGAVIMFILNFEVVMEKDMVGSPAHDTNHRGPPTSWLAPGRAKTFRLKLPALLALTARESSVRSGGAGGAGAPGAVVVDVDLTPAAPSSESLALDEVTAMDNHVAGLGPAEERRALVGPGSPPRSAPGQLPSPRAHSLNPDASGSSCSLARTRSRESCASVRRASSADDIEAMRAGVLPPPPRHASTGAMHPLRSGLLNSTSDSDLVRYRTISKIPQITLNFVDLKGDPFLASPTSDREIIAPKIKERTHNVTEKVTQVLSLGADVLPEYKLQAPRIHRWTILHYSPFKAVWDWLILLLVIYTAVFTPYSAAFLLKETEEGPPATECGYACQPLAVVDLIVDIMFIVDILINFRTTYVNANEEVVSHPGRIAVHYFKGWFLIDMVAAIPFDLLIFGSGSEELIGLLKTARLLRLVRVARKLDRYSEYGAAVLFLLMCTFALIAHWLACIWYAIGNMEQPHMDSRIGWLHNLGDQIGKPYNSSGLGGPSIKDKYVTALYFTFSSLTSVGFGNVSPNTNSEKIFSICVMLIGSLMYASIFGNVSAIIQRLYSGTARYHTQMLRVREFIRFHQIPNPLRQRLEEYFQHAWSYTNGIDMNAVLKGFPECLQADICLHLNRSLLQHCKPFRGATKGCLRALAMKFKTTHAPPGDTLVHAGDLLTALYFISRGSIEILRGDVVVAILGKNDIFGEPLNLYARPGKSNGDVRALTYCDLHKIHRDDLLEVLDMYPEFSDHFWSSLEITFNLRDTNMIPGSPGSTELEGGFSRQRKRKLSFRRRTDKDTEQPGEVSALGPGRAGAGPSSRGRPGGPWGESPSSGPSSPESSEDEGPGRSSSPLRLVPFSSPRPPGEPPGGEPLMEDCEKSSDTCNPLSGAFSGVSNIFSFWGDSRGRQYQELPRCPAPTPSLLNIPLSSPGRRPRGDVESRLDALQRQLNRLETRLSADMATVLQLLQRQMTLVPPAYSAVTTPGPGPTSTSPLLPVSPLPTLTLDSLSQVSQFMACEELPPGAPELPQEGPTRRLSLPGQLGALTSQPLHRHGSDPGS
row,SMILES,"hERG current change (%, negative = inhibition) at 1uM [%]"
1,CC1=C(C#N)C(Nc2cc(C)ccn2)(C(F)(F)F)C(=O)N1 (stereo not shown),-2.79
2,N#CCN1CCN(CCC(=O)Nc2ccc(OCc3ccccc3)cc2)CC1,-1.48
3,CC(C)(C)NC(=O)Cn1c(SCC(N)=O)nc2ccccc21,17.9
4,Cc1onc(NC(=O)NC(=O)c2ccccc2F)c1Br,10.5
5,O=C(NCc1cccnc1)C1c2ccccc2C(=O)N1C1CCCCCC1 (stereo not shown),8.67
6,COc1cc(NC(=O)Cn2nc(C(F)(F)F)c(Br)c2C)cc([N+](=O)[O-])c1,13.8
7,CC1(C)Cc2c(oc3ncn4ncnc4c23)CO1,15.5
8,CCCCN(C(=O)c1ccc(C)o1)c1c(N)n(CCCC)c(=O)[nH]c1=O,5.08
9,CCCCSc1cnn(-c2ccccc2)c(=O)c1SCCCC,-5.42
10,CSCCCN1CCC(n2nccc2NC(=O)CCCc2ccccc2)CC1,-28.5
11,COc1ccc(C)cc1N(CC(=O)N1CCCCCC1)S(=O)(=O)c1ccc(C)cc1,0.866
12,COC(=O)Cc1ccc(NC(=O)c2ccc3c(c2)C(=O)N(Cc2cccnc2)C3=O)cc1,9.99
13,COc1ccc(NS(=O)(=O)c2cc3c(cc2C)NC(=O)CO3)c(OC)c1,6.35
14,CCCCOC(=O)CCNc1n[nH]c(=O)[nH]c1=O,6.23
15,O=C(NCc1ccco1)c1cccc(S(=O)(=O)N2CCN(Cc3ccccc3)CC2)c1,-3.57
16,Cc1ccc(CNC(=O)COC(=O)c2ccc(Br)cc2)cc1,17.2
17,Cc1ccc(NC(=O)C2CCCN2c2nn3c(=O)cc(C)nc3s2)cc1 (stereo not shown),3.7
18,N#Cc1c(NC(=O)c2ccc(Cn3cc(Br)cn3)o2)sc2c1CCCCCC2,2.08
19,COc1ccccc1-c1n[nH]c(=S)n1Cc1ccccc1,14.5
20,Cc1nc(-c2ccccn2)nc(SCC(=O)c2ccccc2)c1Cl,9.36
21,O=C1/C(=C\c2ccc(O)cc2)SC(=S)N1Cc1ccccc1,19.3
22,CSCCC(NC(=O)c1ccco1)C(=O)N(C)CC(=O)Nc1c(Cl)cccc1Cl (stereo not shown),13
23,O=C(NCc1ccc2c(c1)OCO2)c1ccccn1,6.73
24,CCn1cc(C(=O)O)c(=O)c2cc(F)c(N3CCN(C(=S)Nc4ccc(OC)cc4)CC3)cc21,22.2
25,CCCCN(C)S(=O)(=O)c1ccc(C(=O)Nc2nnc(-c3cccs3)o2)cc1,11.3
26,COc1ccc(CN2CCN(Cc3cccn3-c3ncccn3)CC2CCO)c(C)c1C (stereo not shown),-80.4
27,Cc1ccc(N2CC(C(=O)Nc3nnc(SCC(=O)Nc4cc(C)on4)s3)CC2=O)cc1 (stereo not shown),25.3
28,COc1cccc(CC(NC(C)=O)C(=O)NC2CCN(c3nc(C)cc(C)c3C#N)CC2)c1 (stereo not shown),6.32

row,SMILES,"hERG current change (%, negative = inhibition) at 1uM [%]"
1,CCN(CC)CCCn1c2c(c(SCC(=O)Nc3cccc(C)c3C)nc1=O)CCC2,-5.07
2,CCN(CC)C(=O)Cc1c(OC)ccc2cc(Br)ccc12,-19.3
3,CCOc1ccc(Nc2cc(=O)[nH]c(=O)[nH]2)cc1,15.8
4,COc1cc2c(cc1OC)CN(C(=O)c1cc(S(=O)(=O)N3CCOCC3)c(Cl)cc1Cl)CC2,9.54
5,Cc1cccc(NC(=S)NN(Cc2ccccc2)c2ccccc2)c1C,10.4
6,CC(=O)/C(=N\Nc1ccccc1Cl)Sc1nnc(-c2ccccc2)n1-c1ccccc1,6.13
7,Cc1cc(C)nc(NS(=O)(=O)c2ccc(NC(=O)Cc3ccc(F)cc3)cc2)n1,11.6
8,CCOC(=O)c1c(C)[nH]c(C)c1C(=O)COC(=O)CNC(=O)C1CCCCC1,2.62
9,CC(=O)Nc1ccc(S(=O)(=O)N(C)CC(=O)OCC(=O)N2CCc3ccccc32)cc1,13.9
10,Cc1cccc(C(=O)N2CCCC(c3nc(-c4ccc(C)o4)no3)C2)c1 (stereo not shown),-6.12
11,CC(OC(=O)CN1C(=O)c2ccccc2C1=O)C(=O)N(C)c1ccccc1 (stereo not shown),7.02
12,O=C(Cn1c(C(=O)O)cc2ccccc21)c1ccccc1,16
13,O=C(COC(=O)Cc1cccc(C(F)(F)F)c1)Nc1ccc2[nH]c(=O)[nH]c2c1,19.5
14,CCOC(=O)Cc1csc(N/N=C\c2cccc(Br)c2)n1,-1.08
15,C=CCN1C(=O)C2C(C(=O)NC3CCCC3)C3(C)C=CC2(O3)C1C(=O)NC1CCCC1 (stereo not shown),11.8
16,CCc1ccc(N(C(=O)CCC(=O)Nc2cc(C)on2)C(C(=O)NC2CCCC2)c2ccco2)cc1 (stereo not shown),6.62
17,O=S(=O)(NNC(=S)Nc1ccc(S(=O)(=O)Nc2ncccn2)cc1)c1ccc(Br)cc1,6.96
18,Cc1cc(C)cc(NC(=O)c2ccc(N3C(=O)C4CCCCC4C3=O)cc2)c1 (stereo not shown),-15.6
19,O=C(O)/C=C\C(=O)O.c1ccc(Sc2ccccc2CN2CCCC2)cc1,-11.3
20,Cc1ccc(CCN2C(=O)CCC2(C)C(=O)NCc2cccnc2)cc1 (stereo not shown),-3.19
21,COc1cc(C(=O)NC2CCCCC2)ccc1OC1CCN(C(C)=O)CC1,11.4
22,COCc1[nH]nc2c1C(c1ccccc1OC)C(C#N)=C(N)O2 (stereo not shown),5.94
23,CCOc1cc(C2C3=C(CCCC3=O)N(C)C3=C2C(=O)CCC3)cc(Cl)c1O,12.7
24,COc1c(Br)cc(Br)cc1/C=N/NC(=O)c1ccncc1,4.68
25,O=C(C1CCN(S(=O)(=O)c2ccccc2)CC1)N1CCN(Cc2ccc3c(c2)OCO3)CC1,8.3
26,O=C(NCc1ccco1)c1cc(-c2ccccn2)nc2ccccc12,7.78
27,Cc1cc2ccccn2c1C(=O)Nc1ccc(Cl)cc1,2.01
